Some values that stand alone complete this part of the results.

The data set can be described thus: Differential scanning calorimetry (DSC) endotherms of crystalline hits. The data set is classed as physicochemical. The note with it: onset temperature. The protocol:
TGA data were collected using a TA Q500 and Q550 from TA Instruments. DSC was performed using a TA Q2000 from TA Instruments. DSC was calibrated with Indium reference standard and the TGA was calibrated using nickel reference standard.
All hits were further characterized by TGA and DSC, with the stoichiometry determined by ^1H NMR or HPLC/IC. Based on the characterization data in Table 2 below, most of them were considered to be anhydrates.
(Differential scanning calorimetry records heat flow against a reference as temperature is scanned.)

Take `Br.CCCCc1nc(-c2ccc(OCCCN(CC)CC)cc2)cn1-c1ccc(Oc2ccc(Cl)cc2)cc1` [HBr salt Type B]: the “DSC Endo. (onset, ° C.)” value was determined as 167.5 °C (minor endotherm) and 231.5 °C (second endotherm).

Take `CCCCc1nc(-c2ccc(OCCCN(CC)CC)cc2)cn1-c1ccc(Oc2ccc(Cl)cc2)cc1.O=C(O)c1cc(O)ccc1O` [Gentisate Type A]: the “DSC Endo. (onset, ° C.)” value was found to be 89.9 °C (first endotherm) and 129.2 °C (second endotherm).

For the origin of these results see patent US11883383B2, “Pharmaceutically acceptable salts of [3-(4- {2-butyl-1-[4-(4-chloro-phenoxy)-phenyl]-1H-imidazol-4-yl} -phenoxy)-propyl]-diethyl-amine” (vTv Therapeutics LLC, priority 2018, dated 2024).
